# Some of the results follow.
# B1: Surfactant Protein D (Human); Neck + Carbohydrate Recognition Domain (NCRD) (Homo sapiens) (protein)
# chain: MLLFLLSALVLLTQPLGYLEAEMKTYSHRTMPSACTLVMCSSVESGLPGRDRDGREGPRGEKGDPGLPGAAGQAGMPGQAGPVGPKGDNGSVGEPGPKGDTGPSGPPGPPGVPGPAGREGALGKQGNIGPQGKPGPKGEAGPKGEVGAPGMQGSAGARGLAGPKGERGVPGERGVPGNTGAAGSAGAMGPQGSPGARGPPGLKGDKGIPGDKGAKGESGLPDVASLRQQVEALQGQVQHLQAAFSQYKKVELFPNGQSVGEKIFKTAQFVKPFTEAQLLCTQAGGQLASPRSAAENAALQQLVVAKNEAAFLSMTDSKTEGKFTYPTGESLVYSNWAPGEPNDDGGSADCVEIFTNGKWNDRACGAKRLVVCEF
# Key:
# Assay in all cases: glycan array binding signal (z-score within array); higher = stronger binding
# Settings in all cases: glycan notation: IUPAC condensed, linker removed; mutation: E347A
# [1] = target: Man(a1-3)[Man(a1-6)]Man(a1-6)[Man(a1-3)]Man
# Summary of the method: (§1)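 Columns mapping to the same glycan were averaged after glycan names were converted to IUPAC-condensed notation. The data come from 3228 arrays in the Consortium for Functional Glycomics database, limited to those with an available protein sequence. Binding is reported as a within-array Z-score averaged across arrays of one protein sequence and across linkers.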
# [2] = target: Man(a1-3)[Man(a1-6)]Man(a1-6)[Man(a1-3)]Man(b1-4)GlcNAc(b1-4)GlcNAc
# Summary of the method: as §1
# [3] = target: Man(a1-3)[Man(a1-6)]Man(b1-4)GlcNAc(b1-4)GlcNAc
# Summary of the method: as §1
# [4] = target: Man(a1-6)Man
# Summary of the method: as §1
# [5] = target: Man(b1-4)GlcNAc
# Summary of the method: as §1
# [6] = target: Neu5Ac(a2-3)Gal
# Summary of the method: as §1
# [7] = target: Neu5Ac(a2-3)Gal(b1-3)GalNAc
# Summary of the method: as §1
# [8] = target: Neu5Ac(a2-3)Gal(b1-3)GalNAc(b1-3)Gal(a1-4)Gal(b1-4)Glc
# Summary of the method: as §1
# [9] = target: Neu5Ac(a2-3)Gal(b1-3)GalNAc(b1-3)Gal(b1-4)GlcNAc
# Summary of the method: as §1
# [10] = target: Neu5Ac(a2-3)Gal(b1-3)GalNAc(b1-4)[Neu5Ac(a2-3)]Gal(b1-4)Glc
# Summary of the method: as §1
# [11] = target: Neu5Ac(a2-3)Gal(b1-3)GalNAc6S
# Summary of the method: as §1
# [12] = target: Neu5Ac(a2-3)Gal(b1-3)GlcNAc
# Summary of the method: as §1
# [13] = target: Neu5Ac(a2-3)Gal(b1-3)GlcNAc(b1-3)Gal(b1-3)GlcNAc
# Summary of the method: as §1
# [14] = target: Neu5Ac(a2-3)Gal(b1-3)GlcNAc6S
# Summary of the method: as §1
# [15] = target: Neu5Ac(a2-3)Gal(b1-3)[Fuc(a1-4)]GlcNAc
# Summary of the method: as §1
# [16] = target: Neu5Ac(a2-3)Gal(b1-3)[Fuc(a1-4)]GlcNAc(b1-3)Gal(b1-4)[Fuc(a1-3)]GlcNAc
# Summary of the method: as §1
# [17] = target: Neu5Ac(a2-3)Gal(b1-3)[Neu5Ac(a2-3)Gal(b1-4)]GlcNAc
# Summary of the method: as §1
# [18] = target: Neu5Ac(a2-3)Gal(b1-3)[Neu5Ac(a2-6)]GalNAc
# Summary of the method: as §1
# [19] = target: Neu5Ac(a2-3)Gal(b1-4)Glc
# Summary of the method: as §1
# [20] = target: Neu5Ac(a2-3)Gal(b1-4)GlcNAc
# Summary of the method: as §1
# [21] = target: Neu5Ac(a2-3)Gal(b1-4)GlcNAc(b1-2)Man(a1-3)[GlcNAc(b1-2)Man(b1-4)GlcNAc(b1-2)Man(a1-6)]Man(b1-4)GlcNAc(b1-4)GlcNAc
# Summary of the method: as §1
# [22] = target: Neu5Ac(a2-3)Gal(b1-4)GlcNAc(b1-2)Man(a1-3)[Neu5Ac(a2-6)Gal(b1-4)GlcNAc(b1-2)Man(a1-6)]Man(b1-4)GlcNAc(b1-4)GlcNAc
# Summary of the method: as §1
# [23] = target: Neu5Ac(a2-3)Gal(b1-4)GlcNAc(b1-3)Gal(b1-3)GlcNAc
# Summary of the method: as §1
# [24] = target: Neu5Ac(a2-3)Gal(b1-4)GlcNAc(b1-3)Gal(b1-4)GlcNAc
# Summary of the method: as §1
# [25] = target: Neu5Ac(a2-3)Gal(b1-4)GlcNAc(b1-3)Gal(b1-4)GlcNAc(b1-3)Gal(b1-4)GlcNAc
# Summary of the method: as §1
# [26] = target: Neu5Ac(a2-3)Gal(b1-4)GlcNAc(b1-3)Gal(b1-4)[Fuc(a1-3)]GlcNAc
# Summary of the method: as §1
# [27] = target: Neu5Ac(a2-3)Gal(b1-4)GlcNAc(b1-6)[Gal(b1-3)]GalNAc
# Summary of the method: as §1
# [28] = target: Neu5Ac(a2-3)Gal(b1-4)GlcNAc(b1-6)[Neu5Ac(a2-3)Gal(b1-3)]GalNAc
# Summary of the method: as §1
# [29] = target: Neu5Ac(a2-3)Gal(b1-4)GlcNAc6S
# Summary of the method: as §1
# [30] = target: Neu5Ac(a2-3)Gal(b1-4)[Fuc(a1-3)]GlcNAc
# Summary of the method: as §1
# [31] = target: Neu5Ac(a2-3)Gal(b1-4)[Fuc(a1-3)]GlcNAc(b1-3)Gal
# Summary of the method: as §1
# [32] = target: Neu5Ac(a2-3)Gal(b1-4)[Fuc(a1-3)]GlcNAc(b1-3)Gal(b1-4)GlcNAc
# Summary of the method: as §1
# [33] = target: Neu5Ac(a2-3)Gal(b1-4)[Fuc(a1-3)]GlcNAc(b1-3)Gal(b1-4)[Fuc(a1-3)]GlcNAc(b1-3)Gal(b1-4)[Fuc(a1-3)]GlcNAc
# Summary of the method: as §1
# [34] = target: Neu5Ac(a2-3)Gal(b1-4)[Fuc(a1-3)]GlcNAc(b1-6)[Gal(b1-3)]GalNAc
# Summary of the method: as §1
# [35] = target: Neu5Ac(a2-3)Gal(b1-4)[Fuc(a1-3)]GlcNAc6S
# Summary of the method: as §1
# [36] = target: Neu5Ac(a2-3)Gal6S(b1-4)GlcNAc
# Summary of the method: as §1
# [37] = target: Neu5Ac(a2-3)Gal6S(b1-4)[Fuc(a1-3)]GlcNAc
# Summary of the method: as §1
# [38] = target: Neu5Ac(a2-3)GalNAc
# Summary of the method: as §1
# [39] = target: Neu5Ac(a2-3)GalNAc(b1-4)GlcNAc
# Summary of the method: as §1
# [40] = target: Neu5Ac(a2-3)[GalNAc(b1-4)]Gal(b1-4)Glc
# Summary of the method: as §1
# [41] = target: Neu5Ac(a2-3)[GalNAc(b1-4)]Gal(b1-4)GlcNAc
# Summary of the method: as §1
# [42] = target: Neu5Ac(a2-3)[Neu5Ac(a2-6)]GalNAc
# Summary of the method: as §1
# [43] = target: Neu5Ac(a2-6)Gal
# Summary of the method: as §1
# [44] = target: Neu5Ac(a2-6)Gal(b1-4)Glc
# Summary of the method: as §1
# [45] = target: Neu5Ac(a2-6)Gal(b1-4)GlcNAc
# Summary of the method: as §1
binder,measurement,setting,value
B1,glycan array binding signal (z-score),[1],-0.448
same,glycan array binding signal (z-score),[2],0.008
same,glycan array binding signal (z-score),[3],-0.257
same,glycan array binding signal (z-score),[4],-0.148
same,glycan array binding signal (z-score),[5],-0.234
same,glycan array binding signal (z-score),[6],-0.038
same,glycan array binding signal (z-score),[7],-0.217
same,glycan array binding signal (z-score),[8],-0.219
same,glycan array binding signal (z-score),[9],-0.2
same,glycan array binding signal (z-score),[10],0
same,glycan array binding signal (z-score),[11],0.272
same,glycan array binding signal (z-score),[12],-0.335
same,glycan array binding signal (z-score),[13],0.031
same,glycan array binding signal (z-score),[14],0.016
same,glycan array binding signal (z-score),[15],-0.192
same,glycan array binding signal (z-score),[16],-0.074
same,glycan array binding signal (z-score),[17],0.156
same,glycan array binding signal (z-score),[18],0.002
same,glycan array binding signal (z-score),[19],-0.421
same,glycan array binding signal (z-score),[20],0.093
same,glycan array binding signal (z-score),[21],-0.453
same,glycan array binding signal (z-score),[22],-0.294
same,glycan array binding signal (z-score),[23],-0.154
same,glycan array binding signal (z-score),[24],-0.458
same,glycan array binding signal (z-score),[25],0.019
same,glycan array binding signal (z-score),[26],0.031
same,glycan array binding signal (z-score),[27],-0.139
same,glycan array binding signal (z-score),[28],-0.476
same,glycan array binding signal (z-score),[29],-0.28
same,glycan array binding signal (z-score),[30],0.108
same,glycan array binding signal (z-score),[31],-0.17
same,glycan array binding signal (z-score),[32],0.034
same,glycan array binding signal (z-score),[33],-0.459
same,glycan array binding signal (z-score),[34],0.121
same,glycan array binding signal (z-score),[35],-0.432
same,glycan array binding signal (z-score),[36],0.541
same,glycan array binding signal (z-score),[37],-0.255
same,glycan array binding signal (z-score),[38],0.115
same,glycan array binding signal (z-score),[39],0.052
same,glycan array binding signal (z-score),[40],0.492
same,glycan array binding signal (z-score),[41],-0.024
same,glycan array binding signal (z-score),[42],0.057
same,glycan array binding signal (z-score),[43],-0.01
same,glycan array binding signal (z-score),[44],-0.281
same,glycan array binding signal (z-score),[45],-0.009
